Test system: potato tubers
Assay: T2H / propylene glycol vapor treatment of potato tubers, recirculating set-up, skin lesion count (Tables 5-8)
[1] = Table 6 (repeat experiment), Norland Red, T2H 0.27 mL/kg alone or in mixture, PG alone 0.27 mL/kg
[2] = Table 6 (repeat experiment), Yukon Gold, T2H 0.27 mL/kg alone or in mixture, PG alone 0.27 mL/kg
[3] = Table 7, Norland Red, T2H 0.10 mL/kg alone or in mixture, PG alone 0.10 mL/kg
[4] = Table 7, Yukon Gold, T2H 0.10 mL/kg alone or in mixture, PG alone 0.10 mL/kg

Structure (SMILES) | Total Number of Lesions/5 Tubers 96 h [1] | Total Number of Lesions/5 Tubers 96 h [2] | Total Number of Lesions/5 Tubers 96 h [3] | Total Number of Lesions/5 Tubers 96 h [4]
CC(O)CO (centres unmarked) [PG, propylene glycol] | 3 | 9 | 3 | 2
CCC/C=C/C=O [T2H, trans-2-hexenal] | 29 | 25 | 16 | 23
